According to PubChem BioAssay AID2546 (National Center for Advancing Translational Sciences (NCATS), 2010):
Screen size: about 310,000 compounds; about 11,000 (3.5%) were called active. The shares of active, inactive and inconclusive entries below differ from those in the screen. The call rests on the fitted dose curve; in most records, active means well fitted inhibition curve with a large enough effect; inconclusive means small, poorly fitted or top-dose-only effect, or effect the other way; inactive means flat fitted curve, though single readings scatter. Potencies of inconclusive entries are left out as doubtful fits.

test: VP16 counterscreen qHTS for inhibitors of ROR gamma transcriptional activity; conditions: Drosophila S2 Gal4-VP16 UAS-luciferase, luminescence, 20 h; activity, negative = inhibition: at 53.6 µM (top of the series);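 further: Gal4-VP16 expression switched on by copper sulfate through the metallothionein promoter; nearly all actives have a fitted effect of over 50% in size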
On the % scale 0 is the no-effect control and ±100 the full control effect; potency means the concentration at half of the fitted maximal effect; tags describe the fitted curve by direction and shape.

Row | Compound | activity, negative = inhibition | Potency
1 | COc1ccc2c(c1)C(c1ccc(C)o1)=NNC(c1ccccc1)=N2 | inactive: -17.8% | 
2 | C=CCn1c(-c2sc3nc(C)cc(C)c3c2N)n[nH]c1=S | inactive: -3.73% | 
3 | COc1ccc(-n2c(O)c(C=Nc3ccccc3)c3ccccc3c2=O)cc1OC |  | inconclusive [inhibitor, single point]
4 | CCc1nc(SCC(=O)Nc2ccc3c(c2)OCCO3)c2oc3ccccc3c2n1 | inactive: -8.5% | 
5 | Clc1ccc(N=c2ssnc2Cl)cc1 |  | active: 11.2 µM
6 | O=C(N/N=C/c1ccc(N2CCCCC2)o1)C(O)(c1ccccc1)c1ccccc1 |  | active: 12.6 µM
7 | Cc1nn(-c2ccccc2)c(C)c1/C=N/NC(=O)CSc1nc2ccccc2c(=O)n1-c1ccc(Br)cc1 |  | inconclusive [inhibitor, single point]
8 | COc1ccccc1OCCn1cc(/C=N/NC(N)=S)c2ccccc21 |  | active: 2 µM
9 | O=C(N/N=C\c1ccc([N+](=O)[O-])o1)C1COc2ccccc2O1 (configuration not stated) |  | inconclusive [inhibitor, single point]
10 | Cc1ccc(S(=O)(=O)NCc2ccco2)cc1C | inactive: 14.3% | 
11 | O=c1[nH]c2cccc(Cl)c2n(CCNc2ncc(C(F)(F)F)cc2Cl)c1=O |  | inconclusive [inhibitor, single point]
12 | Cc1ccc(S(=O)(=O)N(C)C)cc1NC(=S)Nc1cccc2ccccc12 |  | inconclusive [inhibitor, single point]
13 | COc1cccc(CNC(=O)c2ccc3c(c2)N(C)CCS3)c1OC |  | inconclusive [inhibitor, single point]
14 | COc1ccc(S(=O)(=O)/N=C2/NC(=O)/C(=C\c3ccco3)S2)cc1 |  | inconclusive [inhibitor, single point]
15 | Cn1c(CSCc2ccc(F)cc2)nnc1SCC(=O)N1CCN(c2ccccc2)CC1 |  | inconclusive [inhibitor, single point]
16 | Cc1ccccc1NC(=O)c1ccccc1NC(=O)Cc1cccc2ccccc12 |  | inconclusive [activator, single point]
17 | CC1CN(S(=O)(=O)c2ccc(C(=O)Nc3nnc(-c4ccccn4)o3)cc2)CC(C)O1 (configuration not stated) |  | inconclusive [inhibitor, single point]
18 | COc1ccccc1S(=O)(=O)Cc1ccc(C(=O)NC2CC2)o1 | inactive: 11.6% | 
19 | CC(/C=C/c1ccccc1)=N\NC(=S)NC(C)C |  | inconclusive [inhibitor, single point]
20 | COc1ccc(/C=c2/sc3nc(-c4ccccc4)c(-c4ccccc4)n3c2=O)cc1 |  | inconclusive [inhibitor, full curve]
21 | S=c1[nH]c(-c2ccccc2)cs1 |  | inconclusive [inhibitor, single point]
22 | CC1CCOC(c2coc3ccccc3c2=O)O1 (configuration not stated) |  | inconclusive [inhibitor, single point]
23 | COc1ccccc1OCCn1cc(/C=N/NC(=O)c2ccncc2)c2ccccc21 |  | inconclusive [inhibitor, single point]
24 | COC(=O)c1cccc(Nc2nc3ccccc3nc2C)c1 |  | active: 12.6 µM

Row | Compound | activity, negative = inhibition | Potency
25 | CCCOC(=O)c1c(NC(=O)C2CCCO2)sc(C(=O)OC)c1C (configuration not stated) | inactive: -24.2% | 
26 | COc1cc(C)ccc1OCCOCCOc1cc(C)c(C)cc1Br |  | inconclusive [inhibitor, partial curve, poor fit]
27 | CCOc1cc(/C=N/Nc2nc(C)cc(=O)[nH]2)ccc1O | inactive: -9.62% | 
28 | Cc1cccc(OCC(=O)NCC(=O)N/N=C/c2c(C)[nH]c3ccccc23)c1 | inactive: -11.1% | 
29 | COc1cccc(C2=NN(C(=O)c3ccccc3)C(O)(C(F)(F)F)C2)c1 (configuration not stated) |  | inconclusive [inhibitor, single point]
30 | Cc1ccc(NC(=O)CSc2cccc3cccnc23)c(C)c1 |  | inconclusive [inhibitor, single point]
31 | CC(=O)c1ccc(N2CCN(c3ccc(S(=O)(=O)NCCN(C)C)cc3[N+](=O)[O-])CC2)cc1 |  | inconclusive [inhibitor, single point]
32 | CCN(CC(=O)Nc1cccc(OC)c1)C(=O)C1CCN(C(=O)Nc2ccccc2)CC1 | inactive: 11.2% | 
33 | CN(C)CCSc1nnc(-c2ccccc2)o1 | inactive: -9.99% | 
34 | Cc1ccccc1/C=N/n1c(-c2cc(-c3ccccc3)n[nH]2)n[nH]c1=S |  | inconclusive [inhibitor, partial curve]
35 | OC[C@@H]1[C@@H](c2ccc(F)cc2)C(c2ccccc2)=NN1c1ccccc1 |  | inconclusive [inhibitor, single point]
36 | COc1ccccc1C(=O)N1CC2(C)CC1CC(C)(C)C2 (configuration not stated) | inactive: -3.63% | 
37 | COc1ccc(CCNC(=O)c2ccc3c(c2)NC(=O)C(CSCc2cc(C)ccc2C)N3)cc1OC (configuration not stated) | inactive: -5.67% | 
38 | O=C(/C=C/c1cn(-c2ccccc2)nc1-c1ccccc1)Nc1ccc(C(=O)O)cc1 |  | inconclusive [inhibitor, single point]
39 | COc1ccc(-c2nnc(NC(=O)c3ccc4c(c3)OCCO4)o2)cc1 |  | active: 1.26 µM
40 | N=C1SCC(=O)N1c1ncc(Cc2ccccc2Cl)s1 |  | active: 0.708 µM
41 | O=C(O)c1cccc(-n2cccc2/C=C2/NC(=O)N(Cc3ccccc3F)C2=O)c1 | inactive: -14.6% | 
42 | Cc1cccc(C(=O)O/N=C2\CCCc3ccccc32)c1 |  | inconclusive [inhibitor, single point]
43 | CC(=O)c1cc(-c2ccccc2)n(CC(=O)N2CCN(C3CCCC3)CC2)c1C | inactive: 4.27% | 
44 | Cc1occc1C(=O)NC1CCCN(Cc2ccc(CC(C)C)cc2)C1 (configuration not stated) | inactive: -15.5% | 
45 | CC(SCC(=O)Nc1ccc(F)cc1)c1nc2ccccc2c(=O)[nH]1 (configuration not stated) |  | inconclusive [activator, single point]
46 | COc1ccc(OC)c(-n2c(-c3ccc(C)cc3)n[nH]c2=S)c1 |  | inconclusive [inhibitor, partial curve]
47 | Cc1ccc2nc(NC(=O)c3ccc(OCC4CCCO4)cc3)sc2c1 (configuration not stated) |  | inconclusive [inhibitor, partial curve]
